Laboratory results as given in the supplement of paper PMC8728848.
The other results are listed elsewhere or left out.

Legend:
Test in all cases: glycan array binding signal (z-score within array); higher = stronger binding
Conditions in all cases: glycan notation: IUPAC condensed, linker removed
[1] = target: Gal(b1-3)GlcNAc(b1-2)Man(a1-3)[GlcNAc(b1-4)][Gal(b1-3)GlcNAc(b1-2)Man(a1-6)]Man(b1-4)GlcNAc(b1-4)GlcNAc
In short: (§1)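 The binding signal is a Z-score computed within each array and averaged over linkers. Arrays of the same protein sequence at different concentrations or buffers were also averaged together. Data originate from 3228 arrays in the Consortium for Functional Glycomics database, kept only where the protein sequence was available.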

[2] = target: Gal(b1-3)GlcNAc(b1-2)[Gal(b1-3)GlcNAc(b1-6)]Man(a1-6)[Gal(b1-3)GlcNAc(b1-2)Man(a1-3)]Man(b1-4)GlcNAc(b1-4)GlcNAc
In short: as §1

[3] = target: Gal(b1-3)GlcNAc(b1-3)Gal(b1-3)GlcNAc
In short: as §1

[4] = target: Gal(b1-3)GlcNAc(b1-3)Gal(b1-4)Glc
In short: as §1

[5] = target: Gal(b1-3)GlcNAc(b1-3)Gal(b1-4)GlcNAc
In short: as §1

[6] = target: Gal(b1-3)GlcNAc(b1-3)Gal(b1-4)GlcNAc(b1-2)Man(a1-3)[Gal(b1-3)GlcNAc(b1-3)Gal(b1-4)GlcNAc(b1-2)Man(a1-6)]Man(b1-4)GlcNAc(b1-4)GlcNAc
In short: as §1

[7] = target: Gal(b1-3)GlcNAc(b1-3)Gal(b1-4)GlcNAc(b1-2)[Gal(b1-3)GlcNAc(b1-3)Gal(b1-4)GlcNAc(b1-6)]Man(a1-6)[Gal(b1-3)GlcNAc(b1-3)Gal(b1-4)GlcNAc(b1-2)Man(a1-3)]Man(b1-4)GlcNAc(b1-4)[Fuc(a1-6)]GlcNAc
In short: as §1

[8] = target: Gal(b1-3)GlcNAc(b1-3)Gal(b1-4)GlcNAc(b1-3)Gal(b1-4)GlcNAc(b1-2)[Gal(b1-3)GlcNAc(b1-3)Gal(b1-4)GlcNAc(b1-3)Gal(b1-4)GlcNAc(b1-6)]Man(a1-6)[Gal(b1-3)GlcNAc(b1-3)Gal(b1-4)GlcNAc(b1-3)Gal(b1-4)GlcNAc(b1-2)Man(a1-3)]Man(b1-4)GlcNAc(b1-4)[Fuc(a1-6)]GlcNAc
In short: as §1

[9] = target: Gal(b1-3)GlcNAc(b1-3)Gal(b1-4)GlcNAc(b1-6)[Gal(b1-3)GlcNAc(b1-3)]Gal(b1-4)Glc
In short: as §1

[10] = target: Gal(b1-3)GlcNAc(b1-3)Gal(b1-4)[Fuc(a1-3)]GlcNAc
In short: as §1

[11] = target: Gal(b1-3)GlcNAc(b1-3)Gal(b1-4)[Fuc(a1-3)]GlcNAc(b1-6)[Gal(b1-3)GlcNAc(b1-3)]Gal(b1-4)Glc
In short: as §1

[12] = target: Gal(b1-3)GlcNAc(b1-3)GalNAc
In short: as §1

[13] = target: Gal(b1-3)GlcNAc(b1-6)Gal(b1-4)GlcNAc
In short: as §1

[14] = target: Gal(b1-3)GlcNAc(b1-6)GalNAc
In short: as §1

[15] = target: Gal(b1-3)GlcNAc(b1-6)[Gal(b1-3)]GalNAc
In short: as §1

Gal(b1-3)GlcNAc6S = target: Gal(b1-3)GlcNAc6S
In short: as §1

[16] = target: Gal(b1-3)[Fuc(a1-4)]GlcNAc
In short: as §1

[17] = target: Gal(b1-3)[Fuc(a1-4)]GlcNAc(b1-2)Man
In short: as §1

[18] = target: Gal(b1-3)[Fuc(a1-4)]GlcNAc(b1-2)Man(a1-3)[Gal(b1-3)[Fuc(a1-4)]GlcNAc(b1-2)Man(a1-6)]Man(b1-4)GlcNAc(b1-4)[Fuc(a1-6)]GlcNAc
In short: as §1

[19] = target: Gal(b1-3)[Fuc(a1-4)]GlcNAc(b1-3)Gal(b1-3)[Fuc(a1-4)]GlcNAc
In short: as §1

[20] = target: Gal(b1-3)[Fuc(a1-4)]GlcNAc(b1-3)Gal(b1-4)[Fuc(a1-3)]GlcNAc
In short: as §1

[21] = target: Gal(b1-3)[Fuc(a1-4)]GlcNAc(b1-6)GalNAc
In short: as §1

[22] = target: Gal(b1-3)[GlcNAc(b1-6)]GalNAc
In short: as §1

[23] = target: Gal(b1-3)[Neu5Ac(a2-6)]GalNAc
In short: as §1

[24] = target: Gal(b1-3)[Neu5Ac(a2-6)]GlcNAc(b1-4)Gal(b1-4)Glc
In short: as §1

[25] = target: Gal(b1-3)[Neu5Ac(b2-6)]GalNAc
In short: as §1

Gal(b1-4)Gal = target: Gal(b1-4)Gal
In short: as §1

[26] = target: Gal(b1-4)GalNAc(a1-3)[Fuc(a1-2)]Gal(b1-4)GlcNAc
In short: as §1

[27] = target: Gal(b1-4)GalNAc(b1-3)[Fuc(a1-2)]Gal(b1-4)GlcNAc
In short: as §1

Gal(b1-4)Glc = target: Gal(b1-4)Glc
In short: as §1

Gal(b1-4)Glc6S = target: Gal(b1-4)Glc6S
In short: as §1

Gal(b1-4)GlcNAc = target: Gal(b1-4)GlcNAc
In short: as §1

[28] = target: Gal(b1-4)GlcNAc(a1-6)Gal(b1-4)GlcNAc
In short: as §1

Gal(b1-4)GlcNAc(b1-2)Man = target: Gal(b1-4)GlcNAc(b1-2)Man
In short: as §1

[29] = target: Gal(b1-4)GlcNAc(b1-2)Man(a1-3)Man(b1-4)GlcNAc(b1-4)GlcNAc
In short: as §1

[30] = target: Gal(b1-4)GlcNAc(b1-2)Man(a1-3)[Gal(b1-4)GlcNAc(b1-2)Man(a1-6)]Man(b1-4)GlcNAc(b1-4)GlcNAc
In short: as §1

[31] = target: Gal(b1-4)GlcNAc(b1-2)Man(a1-3)[Gal(b1-4)GlcNAc(b1-2)Man(a1-6)]Man(b1-4)GlcNAc(b1-4)[Fuc(a1-6)]GlcNAc
In short: as §1

B1: CaSRK1 (Capsicum annuum) (protein)
chain: MALCKIFPFAFILLSCSCYLISGQRFDYPTANLSTTWINSVSAPHSIDYTDGSRIRAILLRGTFGPRYACGFYCNGNCESYLFAIFIVQTNSASQITSPAIGFPQVVWSANRNNPVKINSTLQLTAEGDLVLRDADGTLAWSTNTAGKSVAGLSLTDEGNLALFDSKNATVWQSFDHPTDALVPGQKLVPGMKLTASVSRTNWTAGGLFALSAIDNGLVAFVESNPPQKYFEASVGGSNTSGGSNYVKYLNGSLTLFTHSADTTELILISITPASSAQYMKLESNGHLKVYEWTSRGWREVDDLLTGFRGECNYPTVCGRYGICTMGQCSCPTSSSSRTYFRPIDVRRPSLGCSEVTKLTCQNTKKHSPLEVEDVDYFAFKAGISDTDLNTCKRACLEKCSCKAAFFRSGLNSSRTRGDCYLPTEIFSIMNNEKDRTRYDSVAFIKVQV
- glycan array binding signal (z-score) [1]: -0.118
- glycan array binding signal (z-score) [2]: -0.03
- glycan array binding signal (z-score) [3]: -0.295
- glycan array binding signal (z-score) [4]: -0.519
- glycan array binding signal (z-score) [5]: -0.055
- glycan array binding signal (z-score) [6]: 0.511
- glycan array binding signal (z-score) [7]: -0.461
- glycan array binding signal (z-score) [8]: -0.395
- glycan array binding signal (z-score) [9]: -0.019
- glycan array binding signal (z-score) [10]: 0.058
- glycan array binding signal (z-score) [11]: -0.503
- glycan array binding signal (z-score) [12]: -0.422
- glycan array binding signal (z-score) [13]: -0.25
- glycan array binding signal (z-score) [14]: -0.572
- glycan array binding signal (z-score) [15]: -0.384
- glycan array binding signal (z-score) (Gal(b1-3)GlcNAc6S): -0.378
- glycan array binding signal (z-score) [16]: -0.062
- glycan array binding signal (z-score) [17]: -0.011
- glycan array binding signal (z-score) [18]: -0.295
- glycan array binding signal (z-score) [19]: -0.577
- glycan array binding signal (z-score) [20]: -0.053
- glycan array binding signal (z-score) [21]: -0.532
- glycan array binding signal (z-score) [22]: -0.456
- glycan array binding signal (z-score) [23]: -0.368
- glycan array binding signal (z-score) [24]: -0.357
- glycan array binding signal (z-score) [25]: -0.561
- glycan array binding signal (z-score) (Gal(b1-4)Gal): -0.549
- glycan array binding signal (z-score) [26]: -0.479
- glycan array binding signal (z-score) [27]: -0.34
- glycan array binding signal (z-score) (Gal(b1-4)Glc): -0.133
- glycan array binding signal (z-score) (Gal(b1-4)Glc6S): -0.386
- glycan array binding signal (z-score) (Gal(b1-4)GlcNAc): 0.086
- glycan array binding signal (z-score) [28]: -0.479
- glycan array binding signal (z-score) (Gal(b1-4)GlcNAc(b1-2)Man): 0.719
- glycan array binding signal (z-score) [29]: 0.199
- glycan array binding signal (z-score) [30]: -0.379
- glycan array binding signal (z-score) [31]: 0.418
